“And” between values parts separate entries of the source, which are not always exact repeats. Equal entries are not always repeated. Out of some 360,000 compounds screened, about 2,600 (0.72%) were called active. The shares of active, inactive and inconclusive entries below differ from those in the screen. The call rests on the fitted dose curve; in most records, active means well fitted inhibition curve with a large enough effect; inconclusive means small, poorly fitted or top-dose-only effect; inactive means no such curve, though single readings can be large or run the other way. A potency beside an inconclusive call is a rough fit, not a confirmed value.
Assay: Primary qHTS for Inhibitors of ATXN expression; further: nearly all actives have a fitted effect of over 55% in size
Conditions: HEK-293 ATXN2-luciferase reporter, luminescence, 24 h; series mostly up to 57 µM
Outline: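 ATXN2-luciferase reporter cells (luciferase flanked by upstream and downstream ATXN2 gene portions) were treated 24 h at 37 °C with compounds at up to 57 uM. SteadyGlo luminescence gave expression; GF-AFC fluorescence gave viability.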
For `C/C=C(\C)C(=O)N[C@@H](c1ccccc1)[C@@H](O)C(=O)O[C@H]1C[C@@]2(O)[C@@H](OC(=O)c3ccccc3)C3[C@](C)(C(=O)[C@H](OC(C)=O)C(=C1C)C2(C)C)[C@@H](O)C[C@H]1OC[C@@]31OC(C)=O` (stereo not given in full), the Potency was “inactive”.
With `COc1ccc(OC)c(C(O)C2CCCCN2)c1` (stereo not given) the Potency was “inactive”.
For `Cc1ccc2c(c1)C1CN(C)CCC1N2C(=O)Nc1cccc(Cl)c1` (stereo not given), the Potency was inconclusive: 14.1 µM [inhibitor, partial curve, poor fit].
In the case of `Nc1ncnc2c1ccn2[C@@H]1O[C@H](CO)[C@@H](O)[C@H]1O`, the Potency is reported as active: 1.12 µM.
For `Cn1c(=O)n(C)c2cc([N+](=O)[O-])c(N3CCNCC3)cc21`, the Potency was “inactive”.
In the case of `COC12C(COC(N)=O)C3=C(C(=O)C(C)=C(N)C3=O)N1CC1C2N1C` (stereo not given), the Potency is reported as active: 6.31 µM.
With `CCOc1ccc(-n2c(-c3cccs3)nc3ccccc3c2=O)cc1` the Potency was inconclusive: 31.6 µM [inhibitor, partial curve, poor fit].
In the case of `COC(=O)C1=C(c2cc3ccccc3s2)C[C@@H]2CC[C@H]1N2C(=O)NCC1CC1`, the Potency is reported as “inactive”.
With `C=CCn1c(O)c(C(C)=NCc2cc(OC)cc(OC)c2)c(=O)[nH]c1=O` the Potency was inconclusive: 10 µM [inhibitor, partial curve, poor fit].
In the case of `COc1cc(CNCCc2c[nH]c3ccccc23)cc(OC)c1`, the Potency is reported as inconclusive: 37.7 µM [inhibitor, partial curve, poor fit].
With `COC(=O)C1=C(c2cccc(OCc3ccccc3)c2)C[C@@H]2CC[C@H]1N2C(=O)NC1CCN(Cc2ccccc2)CC1` the Potency was inconclusive: 35.5 µM [inhibitor, single point].
For `Cc1nc2ccccn2c1P(=S)(c1ccccc1)c1ccccc1`, the Potency was “inactive”.
In the case of `O=C1NC(=O)C(=Cc2ccc(-c3ccc(F)cc3O)o2)C(=O)N1`, the Potency is reported as inconclusive: 39.8 µM [inhibitor, partial curve, poor fit].
In the case of `Cc1[nH]c2ccc(OC(F)(F)F)cc2c1CCNCc1ccc(Cl)cc1`, the Potency is reported as active: 20 µM.
With `Cc1nc2cc(-c3cccc(F)c3)nn2c(C)c1CCC(=O)N1CCC2(CC1)OCCO2` the Potency was inconclusive: 12.6 µM [inhibitor, partial curve].
With `CCOC(=O)[C@]12Cc3ccc(C)cc3[C@H]1N(C1CCCCC1)C(=O)c1cc(OC)ccc12` the Potency was active: 3.98 µM.
In the case of `CCC(C)N1C(=O)/C(=C\c2cnc(N(C)C)nc2)C(=O)NC1=S` (stereo not given), the Potency is reported as inconclusive: 6.7 µM [inhibitor, partial curve, poor fit].
With `CCCCn1c(C)c(C(=O)OCC)c2c(CN3CCOCC3)c(O)ccc21` the Potency was inconclusive: 11.2 µM [inhibitor, partial curve, poor fit].
In the case of `c1ccc(C2(N3CCCCC3)CCCCC2)cc1`, the Potency is reported as “inactive”.
With `CCCCn1c(=O)c(C(=O)Nc2cnccn2)c(O)c2ccccc21` the Potency was “inactive”.
For `CC(=O)OC1CC2(O)C3CCC4CC(O)CCC4(C)C3CCC2(C)C1C1=CC(=O)OC1` (stereo not given), the Potency was active: 0.316 µM.
With `O=c1[nH]c2ccccc2n1C1CCN(C(c2cc3ccccc3o2)c2nnnn2-c2ccc3c(c2)OCCO3)CC1` (stereo not given) the Potency was active: 12.6 µM.
In the case of `Cc1[nH]nc2ccc(-c3cncc(OC[C@@H](N)Cc4c[nH]c5ccccc45)c3)cc12`, the Potency is reported as active: 385 nM and active: 2.24 µM.
With `CN1C(=O)/C(=C/c2cccn2-c2ccc3ccccc3c2)C(=O)NC1=S` the Potency was inconclusive: 39.8 µM [inhibitor, single point].
For `CO[C@H]1CCC(O[C@H]2C[C@H]([C@]3(C)CC[C@]4(C[C@H](O)[C@@H](C)[C@@H]([C@@H](C)C=C(C)C(=O)[C@H](C)C[C@H](C)C(=O)O)O4)O3)O[C@]3(O[C@@H]([C@H]4O[C@@](O)(CO)[C@H](C)C[C@H]4C)C[C@H]3C)[C@H]2C)O[C@H]1C` (stereo not given in full), the Potency was active: 3.06 µM.
For `CCOC(=O)[C@]12Cc3c(cc(OC)c(OC)c3OC)[C@H]1N(C)C(=O)c1cc(OC)ccc12`, the Potency was active: 11.2 µM.
With `CCn1ccnc1CN1CCCC(C(=O)c2cccc(C(F)(F)F)c2)C1` (stereo not given) the Potency was inconclusive: 20 µM [inhibitor, single point].
In the case of `CCOC(=O)[C@]12Cc3cc(N(C)C)ccc3[C@H]1N(Cc1ccccc1)C(=O)c1ccccc12`, the Potency is reported as inconclusive: 28.2 µM [inhibitor, single point].
With `CSc1ccc(C(=O)C2CCCN(Cc3cc4ccccc4[nH]3)C2)cc1` (stereo not given) the Potency was “inactive”.
In the case of `CC12CC[C@H]3[C@@H](CCC4(O)C[C@H](O)CCC34/C=N/NC(=O)c3ccccc3F)C1(O)CCC2C1=CC(=O)OC1` (stereo not given in full), the Potency is reported as inconclusive: 39.8 µM [inhibitor, single point].
With `CSCCC(c1nnnn1C(C)(C)C)N1CCC(n2c(=O)[nH]c3ccccc32)CC1` (stereo not given) the Potency was “inactive”.
In the case of `COC(=O)C1=C(c2ccc(-c3ccccc3)c(F)c2)C[C@@H]2CC[C@H]1N2C(=O)NCC1CC1`, the Potency is reported as inconclusive: 15.8 µM [inhibitor, partial curve].
In the case of `CC[n+]1c(-c2ccccc2)c2cc(N)ccc2c2ccc(N)cc21`, the Potency is reported as active: 7.08 µM and inconclusive: 37.7 µM [inhibitor, single point].
In the case of `Oc1ccc(O)c2c1C1(Cl)C(Cl)=C(Cl)C2(Cl)C1(Cl)Cl`, the Potency is reported as inconclusive: 39.8 µM [inhibitor, single point].
In the case of `CCN(CCCl)c1cc(CN(C)C)cc(NC(=O)c2ccc(C(=O)Nc3cc(CN(C)C)cc(N(CC)CCCl)c3)cc2)c1`, the Potency is reported as active: 0.708 µM.
In the case of `N#Cc1ncc(N=Cc2ccc(N(CCCl)CCCl)cc2)s1`, the Potency is reported as inconclusive: 5.62 µM [inhibitor, partial curve, poor fit].
In the case of `COC12CCC3(CC1C(C)(O)C(C)(C)C)[C@H]1Cc4ccc(O)c5c4[C@@]3(CCN1CC1CC1)C2O5` (stereo not given in full), the Potency is reported as “inactive”.
For `Clc1ccc(C(Cn2ccnc2)OCc2csc3c(Cl)cccc23)c(Cl)c1` (stereo not given), the Potency was active: 22.4 µM.
In the case of `CN1C(=O)[C@@H](NC(=O)c2cc3ccccc3[nH]2)N=C(c2ccccc2)c2ccccc21`, the Potency is reported as inconclusive: 11.2 µM [inhibitor, full curve].
With `c1cc2c(c(N3CCNCC3)c1)OCCO2` the Potency was “inactive”.

— PubChem BioAssay AID1745845 (National Center for Advancing Translational Sciences (NCATS), 2022)
Potency means the concentration at half of the fitted maximal effect; tags describe the fitted curve by direction and shape.
